Assay results: PubChem BioAssay AID2100 (National Center for Advancing Translational Sciences (NCATS), 2009)
Values joined by “and” are separate entries in the source; they are usually repeats but may differ in a detail not shown here. Equal entries are not always repeated. In all, about 300,000 compounds went through this assay and about 1,200 (0.4%) were called active. Inconclusive means that the source gave no clear call. Such entries were picked first, then a sample of the others. Calls come from the whole dose curve; as a rule, active = well fitted inhibition curve with a large enough effect; inconclusive = small, poorly fitted or top-dose-only effect, or another doubt; inactive = no such curve, though single readings can be large or run the other way. Potencies beside an inconclusive call are fits to weak or partial responses and may not hold up.

Target: Lysosomal alpha-glucosidase (Homo sapiens) (UniProt P10253)
Experiment: qHTS Assay for Inhibitors and Activators of Human alpha-Glucosidase Cleavage of Glycogen
Details: recombinant GAA, glycogen substrate, Amplex Red glucose oxidase fluorescence; series mostly up to 76.4 µM
Method in brief: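 qHTS, 1536-well; enzyme 4 nM final; cpd up to 77 uM; substrate bovine liver glycogen 30 ug; 50 mM citrate/phosphate pH 5.0, 0.01% Tween-20; 37 C, 40 min; Amplex Red detection 45 min RT; Hill fit → AC50.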
Potency is the fitted concentration of half-maximal effect.

| Compound | Potency |
| --- | --- |
| CCCN1CCc2c(sc(NC(=S)NC(=O)c3ccccc3)c2C#N)C1 | inconclusive: 39.5 µM [inhibitor, single point] |
| NNc1nnc2c3cc(F)ccc3n(Cc3ccccc3)c2n1 | inconclusive: 35.5 µM [activator, single point] |
| Nc1ccc(S(=O)(=O)NNC(=O)C(=O)NNc2ccccc2)cc1 | inconclusive: 6.31 µM [inhibitor, full curve] |
| COc1cccc(C(=O)NNC(=S)NC2CCCCC2)c1 | inconclusive: 44.7 µM [inhibitor, single point] |
| CCCCOC(=O)c1ccc(NC(=S)NC(=O)c2c(Cl)cnn2C)cc1 | inconclusive: 7.03 µM [inhibitor, single point] |
| C/C(=N\Nc1cccc2cccnc12)c1ccc[nH]1 | inconclusive: 14.1 µM [inhibitor, partial curve] |
| N#Cc1c(Nc2cccc(F)c2)sc2c(O)cc(=O)[nH]c12 | inconclusive: 12.6 µM [inhibitor, partial curve] |
| CCOc1ccccc1CNC(=O)CN1C(=O)c2cccnc2Oc2ccc(C)cc21 | inconclusive: 11.2 µM [inhibitor, single point] |
| Cc1ccc(S(=O)(=O)NNC(=O)Nc2ccc(C)c(C)c2)c(C)c1 | inconclusive: 25.1 µM [inhibitor, partial curve] |
| N#Cc1nc(-c2ccco2)oc1NCc1ccc(F)cc1 | inconclusive: 19.8 µM [inhibitor, partial curve] |
| CC1CCCN(C(=O)c2ccc(CNc3c(N4CCCCC4)c(=O)c3=O)cc2)C1 (centres undefined) | inconclusive: 20 µM [activator, partial curve] |
| Cc1ccc(NC(=S)NNC(=S)Nc2ccc(C)cc2C)cc1 | inconclusive: 15.8 µM [inhibitor, partial curve] |
| FC(F)(F)c1cccc(NCc2n[nH]c(=S)n2C2CCCCC2)c1 | inconclusive: 35.5 µM [inhibitor, single point] |
| NNc1ccc2nnc(C(F)(F)C(F)(F)C(F)(F)F)n2n1 | active: 31.6 µM |
| CCOC(=O)NC(N(O)c1cccc(Cl)c1)C(Cl)(Cl)Cl (centres undefined) | inconclusive: 28.2 µM [inhibitor, partial curve] |
| O=C(O)C1OC(Oc2cc3oc(-c4ccccc4)cc(=O)c3c(O)c2O)C(O)C(O)C1O (centres undefined) | active: 6.31 µM |
| O=c1cc2c(n[nH]1)CCCC2 | inconclusive: 35.5 µM [inhibitor, single point] |
| Oc1sc(C=Nc2ccc(F)cc2)c2ccccc12 | inconclusive: 31.6 µM [inhibitor, single point] |
| COc1ccc(/C=N/N=C(\N)c2nonc2N)cc1OC | inactive |
| COCC(=O)n1nc(-c2ccc(Cl)cc2)nc1NCc1ccc(F)cc1 | inconclusive: 3.55 µM [inhibitor, partial curve] |
| O=C(NNc1c(Cl)cccc1Cl)c1cccs1 | inconclusive: 12.6 µM [inhibitor, partial curve] |
| Cc1ccc(-c2noc(-c3ccccc3OCC(=O)Nc3ccccc3[N+](=O)[O-])n2)cc1 | inconclusive: 20 µM [inhibitor, partial curve] |
| COc1cccc(NC(=O)Cn2c(=O)n(-c3ccc(C)cc3)c(=O)c3ccccc32)c1 | inactive |

| Compound | Potency |
| --- | --- |
| S=C(Nc1ccc2c(c1)OCCO2)Nc1ccc2c(c1)OCO2 | inconclusive: 31.6 µM [inhibitor, partial curve] |
| C=CCN1CCc2c(cc(O)c(O)c2Cl)C(c2ccccc2)C1 (centres undefined) | inconclusive: 0.891 µM [inhibitor, full curve] |
| O=C(NNC1=NCCCCC1)Nc1cccc(Cl)c1 | inconclusive: 25.1 µM [inhibitor, partial curve] |
| CCOc1c(OC(C)=O)ccc(/C=C2\N=C(SCC)SC2=O)c1[N+](=O)[O-] | inconclusive: 19.8 µM [inhibitor, partial curve] |
| Cc1ccc(-c2n[nH]c(=S)n2/N=C/c2c(C)[nH]n(-c3ccccc3)c2=O)cc1 | inconclusive: 35.5 µM [inhibitor, single point] |
| Cc1ccc(Nc2nc(-c3ccc(O)c(O)c3)cs2)nc1 | inconclusive: 39.5 µM [inhibitor, partial curve, poor fit] |
| CC(C)Cn1cc(C(=O)N2CCN(c3ccccn3)CC2)c2c3ccccc3n(C)c2c1=O | inconclusive: 28.2 µM [inhibitor, partial curve] |
| COc1ccc(NC(=O)CC2C(=O)N(CCc3ccccc3)C(=S)N2Cc2cccnc2)cc1 (centres undefined) | inconclusive: 39.5 µM [inhibitor, single point] |
| CCCN1C(=O)/C(=C/c2ccc(C)o2)NC1=S | inactive |
| COC(=O)C(NS(=O)(=O)c1ccc(F)cc1)c1ccccc1 (centres undefined) | inconclusive: 11.2 µM [activator, single point] |
| CC(=O)c1ccc(NC(=S)NNC(=O)c2ccccc2[N+](=O)[O-])cc1 | inconclusive: 50.1 µM [inhibitor, single point] |
| C/C(=N\NC(=S)NCCc1ccccc1)c1cccs1 | inconclusive: 39.8 µM [inhibitor, single point] |
| COc1ccc(C2CC(C)(c3ccc(OC)cc3)Nc3ccccc3N2)cc1 (centres undefined) | inconclusive: 39.5 µM [inhibitor, partial curve] |
| CCOC(=O)c1ccc(NC(=O)C2CCN(C(=O)N3CC(C)Oc4ccc(C)cc43)CC2)cc1 (centres undefined) | inactive |
| CN=c1scc(-c2ccccc2F)n1/N=C/c1ccc(O)c(O)c1O | inconclusive: 7.94 µM [inhibitor, full curve] |
| O=C1CCC/C1=C/Nc1ccc(Cl)cc1 | inactive |
| CCOc1ccc(N=C(NN)c2ccc3ccccc3n2)cc1 | inconclusive: 39.8 µM [inhibitor, single point] |
| COc1ccccc1CNC(=O)Nc1cccs1 | active: 28 µM |
| Cc1ccc(C2C3=C(CC(C)(C)CC3=O)Nc3onc(C)c32)cc1 (centres undefined) | inconclusive: 24.9 µM [inhibitor, partial curve] |
| CCOCCCNC(=O)CCC(=O)NNc1nc2ccccc2c2nc(-c3ccccc3)nn12 | inconclusive: 5.01 µM [inhibitor, full curve, poor fit] |
| C1CCc2nnc(-c3nnc4n3CCCCC4)n2CC1 | inactive |
| CC(C)n1cc(/C=N/Nc2ccc(Cl)c(C(=O)O)c2)c2ccccc21 | inconclusive: 7.08 µM [inhibitor, full curve] |
| COc1cccc(CNC(=O)CN2C(=O)CCCc3ccccc32)c1OC | inactive |

| Compound | Potency |
| --- | --- |
| COC(=O)c1c(NC(=O)C2CC(=O)NN2Cc2ccccc2)sc(C)c1C (centres undefined) | inconclusive: 22.2 µM [inhibitor, partial curve] |
| Cc1cc(N)ccc1N1CCCC1 | inconclusive: 28 µM [inhibitor, single point] |
| CCOC(=O)NNc1cc(C(F)(F)F)ccn1 | inconclusive: 50.1 µM [inhibitor, single point] |
| Cc1ccc(O)c(NC(=O)c2noc3c2CCCCC3)c1 | inconclusive: 5.01 µM [inhibitor, full curve] and inconclusive: 28.2 µM [inhibitor, partial curve] |
| S=C(NC1CCCCC1)NN(c1ccccc1)c1ccccc1 | inconclusive: 39.5 µM [inhibitor, single point] |
| N#C/C(=C/c1cc(Cl)c(O)c(Cl)c1)C(=O)N1CCCCC1 | inconclusive: 8.91 µM [inhibitor, partial curve] |
| CC(=O)c1sc(N/N=C2\CC3CC2C(C)C3(C)C)nc1C (centres undefined) | inconclusive: 39.5 µM [inhibitor, single point] |
| CCc1ccc(C(=O)NNc2ccc(Cl)cc2)cc1 | inconclusive: 12.6 µM [inhibitor, partial curve] |
| CCCn1cnc2cc(NCc3ccccn3)ccc21 | inactive |
| O=C(CCc1ccccc1)NNc1ccc(F)cc1 | active: 20 µM |
| S=c1[nH]nc(-c2ccc(Br)cc2)n1Cc1ccccc1 | inconclusive: 5.01 µM [inhibitor, full curve, poor fit] |
| O=c1oc2ccccc2nc1/C=C(O)/C=C\c1ccccc1 | inconclusive: 20 µM [inhibitor, partial curve] |
| O=C(CCC(=O)N1CCN(c2ccc(O)cc2)CC1)c1cccs1 | active: 11.1 µM |
| COC(=O)c1cc(C)nc2c1C(=O)C(=O)C=C2N1CCOCC1 | inactive |
| CC(C)CN1C(=O)c2ccc(NC(=O)Cc3ccccc3)cc2C1=O | inconclusive: 11.2 µM [inhibitor, single point] |
| O=[N+]([O-])c1cccc(C2Nc3cccc4cccc(c34)N2)c1 | inconclusive: 3.55 µM [inhibitor, full curve] |
| O=C(CN1CCN(c2ccc(F)cc2)CC1)c1ccc(O)cc1O | inconclusive: 50.1 µM [activator, single point] |
| NNC(=O)c1cc(-c2cccs2)nc2ccccc12 | inconclusive: 39.5 µM [inhibitor, partial curve] |
| COCCn1c(NC(=S)NC(=O)C2CC2)cc(=O)[nH]c1=O | active: 31.4 µM |
| Cc1ccc(NC(=O)Nc2cccs2)nc1 | inconclusive: 22.2 µM [inhibitor, single point] |
| CNC(=S)NNC(=O)CSCc1c(Cl)cccc1Cl | inconclusive: 31.4 µM [inhibitor, single point] |
| Cc1nnc(SCC(=O)c2ccc([N+](=O)[O-])cc2)s1 | inconclusive: 50.1 µM [inhibitor, single point] |
| Oc1ccc(C2Nc3cccc4cccc(c34)N2)cc1 | inconclusive: 50.1 µM [activator, single point] |
